Results reported in PubChem BioAssay AID504832 (National Center for Advancing Translational Sciences (NCATS), 2011).
Hit rate of the full screen: of about 310,000 compounds, about 18,000 (5.8%) were called active. This list was built around the results that the source calls inconclusive (neither active nor inactive); the mix of calls is not that of the screen. The call rests on the fitted dose curve; in most records, active means well fitted inhibition curve with a large enough effect; inconclusive means small, poorly fitted or top-dose-only effect, or another doubt; inactive means no such curve, though single readings can be large or run the other way. Potencies of inconclusive entries are left out as doubtful fits.

experiment: Primary qHTS for delayed death inhibitors of the malarial parasite plastid, 48 hour incubation; conditions: P. falciparum luciferase growth in erythrocytes; series mostly up to 28.7 µM
How it was run: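 Here the parasites carry a stable luciferase gene and grow inside erythrocytes in Albumax-based RPMI medium with compound for one erythrocytic cycle. Activity is scored as loss of luminescent signal.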
On the % scale 0 is the no-effect control and ±100 the full control effect; potency means the concentration at half of the fitted maximal effect; tags describe the fitted curve by direction and shape.

| Structure (SMILES) | Potency | activity change, negative = inhibition |
| --- | --- | --- |
| COc1ccccc1C/C(N)=N/OC(=O)COc1ccc(C)cc1 | inactive | – |
| Cc1nc(N2CCCCC2)c2c(C)c(C(=O)Nc3cccc(C(F)(F)F)c3)sc2n1 | active: 2.62 µM | – |
| CCc1ccc(OCCNc2cc(N3CCNC(C)C3)ccc2[N+](=O)[O-])cc1 (stereo not drawn) | active: 4.65 µM | – |
| CCCN(CCC)C(=S)Nc1cc(C(=O)OC)ccc1C(=O)OC | inconclusive [inhibitor, single point] | – |
| O=c1[nH]c(C2CCCN(S(=O)(=O)c3ccccc3Cl)C2)nc2c1nnn2Cc1ccc2c(c1)OCCO2 (stereo not drawn) | inconclusive [inhibitor, partial curve] | – |
| COc1nccc(C(F)(F)F)c1C(=O)NC(=O)Nc1c(C)cccc1C | inconclusive [inhibitor, partial curve, poor fit] | – |
| c1ccc(-c2ccc(C3=Nn4c(nnc4-c4cc(-c5ccccc5)n[nH]4)SC3)cc2)cc1 | inconclusive [inhibitor, single point] | – |
| CCc1cccc(NS(=O)(=O)c2ccc3c(c2)CCC(=O)N3)c1 | inconclusive [inhibitor, single point] | – |
| O=S(=O)(c1ccc(Cl)cc1Cl)N1CCCC1c1cccnc1 (stereo not drawn) | inconclusive [inhibitor, single point] | – |
| CS(=O)(=O)c1ccccc1C(=O)N(CCC1=CCCCC1)c1c(N)n(Cc2ccccc2)c(=O)[nH]c1=O | inconclusive [inhibitor, single point] | – |
| O=C1CCCN1c1ncc(S(=O)(=O)c2ccc([N+](=O)[O-])cc2)s1 | inconclusive [inhibitor, partial curve] | – |
| CCC(C(=O)NC1CCCC1)N(Cc1cccs1)C(=O)Cn1nnc(-c2ccc(OC)c(OC)c2)n1 (stereo not drawn) | inconclusive [inhibitor, partial curve, poor fit] | – |
| CN(C)c1nc(N2CCN(c3ccc(F)cc3)CC2)c(C#N)c(=O)o1 | inconclusive [inhibitor, single point] | – |
| COC(=O)CSc1nnc(-c2ccco2)n1Cc1ccco1 | inactive | – |
| Cc1ccc(C(C(=O)NCc2ccccc2)N(Cc2ccco2)C(=O)c2snc(C(N)=O)c2N)o1 (stereo not drawn) | inconclusive [inhibitor, partial curve] | – |
| CN1C(=O)N(C)C(=O)C2(Cc3cc([N+](=O)[O-])ccc3N3CCN(C(=O)c4ccccc4)CC32)C1=O (stereo not drawn) | inconclusive [inhibitor, single point] | – |
| O=C(O)/C=C/C(=O)Nc1ccccc1-c1ccccc1NC(=O)/C=C/C(=O)O | inactive | – |
| COc1ccc2c(c1OC)C(=O)OC2Nc1nc(-c2ccccc2)cs1 (stereo not drawn) | inconclusive [inhibitor, single point] | – |
| CCCCn1c(=O)[nH]c(=O)c2c1nc(-c1ccc([N+](=O)[O-])cc1)n2CC | inconclusive [inhibitor, full curve] | – |
| Cc1cc(C)c(S(=O)(=O)Nc2ccc(-c3cn4ccccc4n3)cc2)c(C)c1 | active: 14.7 µM | – |
| CCC(C)NC(=O)c1cc(S(=O)(=O)N2CCCCC2)c[nH]1 (stereo not drawn) | inactive | – |
| Cc1ccc(OCCn2cc(C#N)c3ccccc32)cc1 | active: 8.28 µM | – |
| Cc1c2c(n3c(nc4ccccc43)c1C#N)N(c1ccccc1)CC2 | active: 2.08 µM | – |

| Structure (SMILES) | Potency | activity change, negative = inhibition |
| --- | --- | --- |
| COc1ccc(C(CNC(=O)c2ccc(N3CCCC3=O)cc2)N2CCCC2)cc1 (stereo not drawn) | inconclusive [inhibitor, partial curve, poor fit] | – |
| CCOC(=O)c1cc(C#N)c(SCC(=O)O)[nH]c1=O | inconclusive [inhibitor, single point] | – |
| COc1ccc(Cc2nnc(NC(=O)Nc3ccccc3F)s2)cc1OC | inconclusive [inhibitor, partial curve, poor fit] | – |
| O=C(Nc1ccon1)c1ccc(Cl)s1 | inactive | – |
| CCc1ccccc1OCC(=O)Nc1ccc(F)c(S(=O)(=O)N2CCOCC2)c1 | inconclusive [inhibitor, partial curve, poor fit] | – |
| COC(=O)C1=C(c2c(C)noc2C)C[C@@H]2CC[C@H]1N2C(=O)NCCOc1ccccc1Cl | inconclusive [inhibitor, single point] | – |
| COc1ccc(NC(=O)c2ccc3ncsc3c2)c2ccccc12 | inconclusive [inhibitor, single point] | – |
| CCCCSc1nnc(CCCCCNC(=O)OC(C)(C)C)o1 | inconclusive [inhibitor, single point] | – |
| CNC(=O)C1CC(=O)N(CCc2ccc(OC)c(OC)c2)C(=Nc2ccc(F)cc2)S1 (stereo not drawn) | inconclusive [inhibitor, single point] | – |
| CN1CCN(c2nc(-c3cccc([N+](=O)[O-])c3)nc3ccccc23)CC1 | inconclusive [inhibitor, single point] | – |
| Cc1cccc(N2CCN(C(=O)c3ccc(CS(=O)(=O)c4ccccc4C)o3)CC2C)c1 (stereo not drawn) | active: 13.1 µM | – |
| CCCNC(=S)N1CCC(NC(=O)c2ccc(C)cc2)CC1 | inconclusive [inhibitor, partial curve, poor fit] | – |
| N#Cc1ccc(CN2CCN(C(=O)c3ccc(S(=O)(=O)NCc4ccco4)cc3)CC2)cc1 | inconclusive [inhibitor, partial curve] | – |
| C=CCn1cccc(C(=O)Nc2ccc(SC)cc2)c1=O | inactive | – |
| COC(=O)c1ccc(-c2ccc(Cl)cc2)nc1C | inactive | – |
| COc1ccc(NC(=O)COc2ccc(C(=O)c3ccc(F)cc3)cc2)cc1S(N)(=O)=O | inactive | – |
| CCOC(=O)c1c(C)n(C)c2ccc(OC)c(NC(=O)c3cccs3)c12 | inconclusive [inhibitor, partial curve, poor fit] | – |
| COCCn1c(C)cc(C(=O)COc2ccc(C)nc2[N+](=O)[O-])c1C | inactive | – |
| COc1cc(/C=N/NC(=O)C2c3ccccc3Oc3ccccc32)ccc1O | inconclusive [inhibitor, single point] | – |
| Cc1ccc(NC(=O)Nc2ccc3c(c2)C(=O)OC3)cc1Cl | inactive | – |
| Cc1cc2nc(C)n(CCCN)c2cc1C | inconclusive [inhibitor, single point] | – |
| CC(C)(C)c1ccc(C(=O)NCCC(=O)NCc2ccco2)cc1 | inconclusive [inhibitor, single point] | – |
| Cc1ccc(-c2nc(=S)c3c(n2Cc2ccco2)CCCC3)cc1 | inconclusive [inhibitor, single point] | – |

| Structure (SMILES) | Potency | activity change, negative = inhibition |
| --- | --- | --- |
| N#C/C(=C/c1ccc(-c2ccc(Br)cc2)o1)C(=O)NC1CCCCC1 | inactive | – |
| Cc1cc2cc(CCNC(=O)c3cccc([N+](=O)[O-])c3)c(=O)[nH]c2cc1C | inactive | – |
| CCc1ccc(-c2cc(C)no2)cc1S(=O)(=O)Nc1cccc(CN2CCCC2)c1 | active: 9.28 µM | – |
| Cc1cc([N+](=O)[O-])c2[nH]c(C(=O)N/N=C/c3ccccc3C(=O)O)c(-c3ccccc3)c2c1 | inconclusive [inhibitor, single point] | – |
| C/C(=N\Nc1ccc(C)c(Cl)c1)c1ccncc1 | inconclusive [inhibitor, single point] | – |
| CC(C)OC(=O)c1cccc(NC(=O)CSc2nnc(N)s2)c1 | inactive | – |
| COc1ccccc1CNC(=O)COC(=O)c1ccccc1SCC(=O)N1CCCC1 | inconclusive [inhibitor, partial curve, poor fit] | – |
| CCCC1=NN2C(=N)/C(=C\c3ccc(OCCOc4ccc(NC(C)=O)cc4)c(OC)c3)C(=O)N=C2S1 | inactive | – |
| CCc1ccc(C(C(=O)NC2CCCC2)N(Cc2cccnc2)C(=O)c2csnn2)cc1 (stereo not drawn) | inconclusive [inhibitor, single point] | – |
| Nc1ccccc1-c1nnc(SCc2ccccc2Cl)[nH]c1=O | inconclusive [inhibitor, single point] | – |
| [O-][n+]1c2c(nn1-c1ccccc1)/C(=N/O)CCC2 | inactive | – |
| Cc1cc([N+](=O)[O-])ccc1Nc1nc2ccccc2n2cnnc12 | – | inactive: 5.71% [at 0.00184 µM] |
| COc1ccc(CN2CCC(CO)(CCOc3ccccc3)CC2)cc1C | active: 10.4 µM | – |
| CC(=O)Nc1ccc(NC(=O)C(C)OC(=O)c2ccccc2NS(=O)(=O)c2cccs2)cc1 (stereo not drawn) | inactive | – |
| COc1c(/C=N/Nc2nc(N3CCCCC3)nc(N3CCCCC3)n2)cccc1[N+](=O)[O-] | inconclusive [inhibitor, partial curve, poor fit] | – |
| CC(=O)c1ccc(S(=O)(=O)NC2CC(=O)N(c3ccc4c(c3)OCCO4)C2)cc1 (stereo not drawn) | inconclusive [inhibitor, single point] | – |
| COc1ccc(OCCCC(=O)NCCc2nc3ccccc3[nH]2)cc1 | inconclusive [inhibitor, partial curve] | – |
| CC1(C)CC(NC(=O)C2CCC(=O)N(C3CC3)C2)CC(C)(C)C1 (stereo not drawn) | inactive | – |
| OC1CCN(c2cc(-c3ccccc3)nc3cc(-c4ccc(F)cc4)nn23)CC1 | inconclusive [inhibitor, single point] | – |
| O=c1[nH]ccc2c([N+](=O)[O-])cccc12 | inactive | – |
| CCN(CC)CCN1c2ccccc2Sc2ccccc21 | inconclusive [inhibitor, full curve, poor fit] | – |
| COc1ccc(Cl)cc1C(=O)Nc1ccc(OCC(=O)N2CCOCC2)cc1 | inconclusive [inhibitor, partial curve, poor fit] | – |
